# The BET-seq Pho4 binding data (Le et al. 2018)
# Some of the results follow. Values were computed here from the reads of four pooled replicates and scatter widely.
# Target: T1, Pho4 (S. cerevisiae) (UniProt P07270)
# T1 sequence: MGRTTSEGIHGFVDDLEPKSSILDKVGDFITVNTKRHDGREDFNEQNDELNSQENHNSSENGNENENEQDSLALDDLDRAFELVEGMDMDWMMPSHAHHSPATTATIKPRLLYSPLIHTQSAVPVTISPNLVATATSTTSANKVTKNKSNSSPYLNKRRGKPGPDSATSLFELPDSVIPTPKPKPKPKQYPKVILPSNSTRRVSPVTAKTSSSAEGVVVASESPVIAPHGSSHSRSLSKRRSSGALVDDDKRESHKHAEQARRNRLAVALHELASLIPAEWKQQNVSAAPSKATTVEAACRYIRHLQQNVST
# Assay: relative binding free energy (BET-seq); higher = weaker binding
# Conditions: reference: library average
row,Sequence,relative binding free energy [kcal/mol]
1,GTTTACACGTGATTAT,0.29
2,TGATCCACGTGATGTT,0.21
3,GAATGCACGTGTGGAT,0.06
4,TGTGGCACGTGCGCTT,-0.31
5,GTCGCCACGTGTTGGT,-0.04
6,GATTGCACGTGGCTGT,0
7,TGAGGCACGTGCAATT,-0.05
8,GGTACCACGTGTTAGT,-0.07
9,TGGAGCACGTGGCGGC,-0.18
10,GTTCGCACGTGAGTGT,0.2
11,GTTGGCACGTGACTCG,0.03
12,GGGGTCACGTGTTAGG,0.15
13,TTGTACACGTGAAGTG,0.31
14,TTGTCCACGTGGGGGA,-0.09
15,TGGTGCACGTGGTAGC,-0.07
16,GAATTCACGTGTGTCG,0.34
17,GGGCGCACGTGGTGCG,-0.09
18,GGCGTCACGTGGACGG,0.2
19,AATTTCACGTGTCGTA,0.16
20,AGGAGCACGTGATGAG,0.04
21,TTTATCACGTGCTCGT,0.15
22,GCTTGCACGTGGGGGG,-0.05
23,AGTTGCACGTGAGCTT,0.23

row,Sequence,relative binding free energy [kcal/mol]
1,TGAATCACGTGGCTGG,0.2
2,CTGGGCACGTGTAATT,0.04
3,CGTTTCACGTGTTAAT,0.24
4,AAGTACACGTGTGAGG,0.16
5,GGAGGCACGTGTAGGT,-0.05
6,TTTGGCACGTGCGTGG,-0.23
7,TGTCACACGTGGGGGA,-0.18
8,ATATGCACGTGAGGCG,0.11
9,GTTAACACGTGTAGGG,0.09
10,GTGTCCACGTGGTGTC,0.03
11,ATGTTCACGTGCTTGG,0.18
12,TGGAGCACGTGAAATG,0.27
13,GGGTACACGTGATGGT,0.3
14,GCGTGCACGTGTGGGT,0.06
15,AGTGTCACGTGTAAAT,0.22
16,TGGTCCACGTGTGTAT,0.14
17,GATAGCACGTGTGTTT,0.06
18,GTTTTCACGTGAGGGG,0.46
19,TGGGTCACGTGTTATA,0.15
20,GGAGGCACGTGTCCGG,-0.06
21,AGGCGCACGTGTGCGG,-0.15
22,TGTGACACGTGTATAA,0.05
23,ACCGGCACGTGGGGGC,-0.26

row,Sequence,relative binding free energy [kcal/mol]
1,GTTAGCACGTGGAGCT,0
2,GGATTCACGTGGGTAA,0.2
3,GGTATCACGTGTTTGT,0.19
4,CGTGCCACGTGAGGTT,-0.01
5,TGCAGCACGTGGCTGT,-0.15
6,GCATGCACGTGGTTGA,0
7,AAAATCACGTGGGGTT,0.07
8,GTGGTCACGTGCTATG,0.02
9,GGTTACACGTGATATG,0.19
10,ACTGGCACGTGGGATT,-0.14
11,GGATTCACGTGTGTAG,0.08
12,GGGTCCACGTGCGTGT,-0.22
13,GGTGGCACGTGAGGAG,0.09
14,AAAAGCACGTGTATGT,-0.14
15,TTGTTCACGTGGCAAG,0.23
16,TTGTACACGTGACGTA,0.15
17,TCAATCACGTGTTGTT,0.14
18,CGGTGCACGTGGGCGC,-0.27
19,CGTGCCACGTGGTGGA,-0.25
20,TTGTGCACGTGAATCG,0.2
21,TTCGTCACGTGGTAAG,0.13
22,ATTTGCACGTGTAACT,0.07
23,TGTGCCACGTGGGGGC,-0.26

row,Sequence,relative binding free energy [kcal/mol]
1,TAGTGCACGTGCAGTA,0.02
2,AATAGCACGTGAGATG,0.19
3,TGTTTCACGTGCTCGA,0.2
4,TGAGGCACGTGGGCCG,-0.28
5,ATTTTCACGTGGAAAT,0.31
6,TTTTACACGTGAGTCA,0.24
7,TGTCGCACGTGCAGTA,-0.02
8,GTGGCCACGTGTGTTA,0.13
9,ATTTTCACGTGTACAG,0.24
10,TATATCACGTGTATCG,0.25
11,GGCTTCACGTGGAATG,0.42
12,TGTGGCACGTGGGTGT,-0.22
13,GGTGACACGTGCGTGA,-0.03
14,GTCCTCACGTGGTTTA,0.29
15,AGTAGCACGTGATGAG,-0.07
16,GTGTTCACGTGGGGAA,0.16
17,ATAGGCACGTGAAGAT,0.04
18,AGAGTCACGTGACGTT,0.17
19,TGATGCACGTGTTATC,0.03
20,CGGGACACGTGTGTTC,0.07
21,TCGTTCACGTGAAGTG,0.42
22,GTTTCCACGTGTTATG,0.13
23,GTTTGCACGTGAGTAT,0.24

row,Sequence,relative binding free energy [kcal/mol]
1,AATGTCACGTGCATGT,-0.03
2,ACGGGCACGTGATGGT,0.14
3,TGTGTCACGTGGCATG,-0.04
4,GGAGTCACGTGCTGGG,-0.04
5,AGTGTCACGTGGAGGT,-0.02
6,AGATTCACGTGTTGCT,0.13
7,ATGATCACGTGGTTTC,0.12
8,TATGACACGTGGATGT,-0.04
9,AGCTCCACGTGAGGGG,0.21
10,TAAGGCACGTGCGTTA,-0.17
11,GTGCACACGTGGTAGT,-0.06
12,TGTCGCACGTGTGTTG,-0.03
13,TTAAACACGTGAAGGT,0.21
14,TTAGTCACGTGAGTAG,0.27
15,TTGCTCACGTGCAGGT,0.15
16,GTGATCACGTGTGTGA,0.26
17,GAGGTCACGTGGCGTA,0
18,TTTTGCACGTGCGGTA,0.04
19,ATATTCACGTGTTGGC,0.27
20,TGTTACACGTGTTCGC,0.09
21,GATGGCACGTGGTTAT,-0.12
22,TTGTCCACGTGTCGTG,0.16
23,GAGGACACGTGGGTTC,0.13
